Reference: PubChem BioAssay AID485344 (National Center for Advancing Translational Sciences (NCATS), 2010)
Screen size: about 340,000 compounds; about 6,900 (2%) were called active. Cut-off read from the data, not from the text of the source: active = inhibition above about 30%; inactive = below that, where a call was filed. This is a selection; strong and weak results do not stand in their true shares. Where no call is shown, the source filed none.

target: D(2) dopamine receptor (Homo sapiens) (UniProt P14416); test: HTS Assay for Allosteric Antagonists of the Human D2 Dopamine Receptor: Primary Screen for Antagonists; details: HEK293 TREx D2 cells, calcium flux, dopamine EC80; at 10 µM; stronger effect = higher value; note: 0% is about no effect
Procedure, shortened: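 Calcium flux kinetic readout in an inducible HEK293 TREx D2 line plated overnight at 30 C. After 180 s compound exposure, an EC80 dopamine challenge follows with another 180 s kinetic read to detect antagonism.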

UniProt P14416, sequence (P14416 whole entry, looked up): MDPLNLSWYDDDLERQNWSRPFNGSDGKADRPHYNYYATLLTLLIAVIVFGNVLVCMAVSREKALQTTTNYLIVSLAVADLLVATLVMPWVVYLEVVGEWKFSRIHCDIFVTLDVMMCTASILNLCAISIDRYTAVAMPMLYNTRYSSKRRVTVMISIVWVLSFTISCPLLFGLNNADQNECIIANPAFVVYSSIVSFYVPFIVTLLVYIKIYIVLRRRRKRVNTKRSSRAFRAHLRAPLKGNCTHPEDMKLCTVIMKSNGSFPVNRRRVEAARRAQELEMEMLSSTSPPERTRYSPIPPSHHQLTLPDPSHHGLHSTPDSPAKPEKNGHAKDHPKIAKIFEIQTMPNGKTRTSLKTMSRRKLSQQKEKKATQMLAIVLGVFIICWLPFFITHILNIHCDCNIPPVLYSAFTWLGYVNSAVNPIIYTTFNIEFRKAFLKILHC

Compared with `Cc1ccc(CSc2oc(-c3ccco3)nc2S(=O)(=O)c2ccc(Cl)cc2)cc1`, `Cc1ccc(-n2c(=O)c3ccc(C(=O)NCc4ccco4)cc3n(Cc3ccc(Cl)cc3)c2=O)cc1` is higher in inhibition: -1.42% for the first, 27.1% for the second.

First: CCOC(=O)c1cccc(NC(=O)c2cc(S(=O)(=O)N3CCCC3)cn2C)c1
Second: CCOC(=O)c1c(C)[nH]c(C)c1S(=O)(=O)N1CCC(C(=O)Nc2ccc(C)c(Cl)c2)CC1
The inhibition of the first is lower: 3.56% for the first, 5.35% for the second.

Going from `CCOC(=O)CNC(=O)c1cc2c(=O)n(CC)c3ccccc3c2s1` to `CCc1ccccc1NC(=O)c1cc2c(Cl)nc3ccccc3c2s1`, the inhibition falls from 4.12% to -21%.

Compared with `COC(=O)c1cc2sc(C)cc2n1Cc1ccccc1`, `COC(=O)c1cc2occc2n1Cc1nc(-c2cccc(Br)c2)oc1C` is lower in inhibition: 10.2% for the first, 8.34% for the second.

Compared with `Cc1ccc(CNC(=O)CSc2ccc(-c3sc(-c4ccccc4)nc3C)nn2)cc1`, `Cc1ccc(C2=NN(CC(=O)NC(C)c3ccccc3)C(=O)CC2)cc1` (stereo not given) is higher in inhibition: -22% for the first, -0.897% for the second.

Compared with `CCCOC(=O)c1ccc(NC(=O)Cn2nnc3sc4c(c3c2=O)CCC(C(C)(C)C)C4)cc1` (stereo not given), `CCOC(=O)c1ccc(NC(=O)CSc2nc(C)c(Cc3ccccc3)c(=O)[nH]2)cc1` is lower in inhibition: 7.03% for the first, -1.91% for the second.

Compared with `COc1ccc(-c2cn3nc(N4CCC(C(=O)NCc5ccc(F)cc5)CC4)sc3n2)cc1`, `CCc1ccc(-c2nc(CSCC(=O)N3CCN(c4ccc(F)cc4)CC3)c(C)o2)cc1` is higher in inhibition: 4.99% for the first, 13.7% for the second.

First: CCOC(=O)c1c(NC(=O)COc2cccc(C)c2C)sc2c1CCCCC2
Second: CCCCOc1ccccc1C(=O)Nc1onc2c1CCCC2
The inhibition of the first is higher: 10.5% for the first, -1.59% for the second.

Going from `COc1ccc(NC(=O)C2CCC(CNS(=O)(=O)c3csc(C(N)=O)c3)CC2)cc1` (stereo not given) to `Cc1cc(C)c2nc(NC(=O)c3ccc(S(=O)(=O)N4CCC(C)CC4)cc3)sc2c1`, the inhibition rises from -3.9% to -2.76%.

Going from `CC(C)c1ccc(Nc2c(-c3ccc(N4CCOCC4)cc3)nc3ncccn23)cc1` to `Cc1ccc(-c2ccc(=O)n(CC(=O)Nc3ccc(C(C)C)cc3)n2)cc1`, the inhibition rises from -13.2% to 2.26%.

Going from `COc1ccc(Nc2ncnc3onc(-c4ccc(Cl)cc4)c23)cc1Cl` to `CSc1ccc(CCNc2ncnc3onc(-c4ccc(Cl)cc4)c23)cc1`, the inhibition rises from -27.9% to -5.98%.

Going from `CCCCn1c(SCC(=O)Nc2cccc(OC)c2)nc2ccsc2c1=O` to `COc1cccc(NC(=O)CSc2nc3c([nH]c4ccccc43)c(=O)n2-c2cccc(Cl)c2)c1`, the inhibition falls from -2.79% to -23%.

Going from `Cc1ccc(NC(=O)c2cn(-c3ccccc3)nc2-c2ccccc2)cc1` to `CC(=O)Nc1ccc(Nc2ncnc3c2c(-c2ccccc2)cn3-c2ccc(C)c(Cl)c2)cc1`, the inhibition rises from -22.9% to 5.37%.

Compared with `O=C(NCc1ccccc1)c1ccc(NC(=O)N2CCSc3ncccc32)cc1`, `CCOc1ccccc1CNC(=O)c1ccc(Cn2c(SCc3ccccc3)nc3cccnc32)cc1` is higher in inhibition: 5.67% for the first, 7.88% for the second.

First: COc1ccc(-n2cc(-c3ccccc3)c3c(NCc4cccc(Cl)c4)ncnc32)cc1
Second: COc1cc2nc(NCc3ccccc3)n3nc(-c4ccccc4)nc3c2cc1OC
The inhibition of the first is higher: 23.8% for the first, 1.42% for the second.

Compared with `COc1cc(OC)c(NC(=O)c2cnn(-c3cccc(Cl)c3C)c2C2CCN(C(=O)OC(C)(C)C)CC2)cc1Cl`, `CCOC(=O)N1CCN(Cc2nc3cc(NC(=O)c4ccccc4OC)ccc3n2C(C)C)CC1` is lower in inhibition: 3.58% for the first, -9.71% for the second.

Going from `COc1ccccc1NC(=O)c1c(C)cc(C)nc1SCC(=O)Nc1cccc(C)c1` to `Cc1cccn2c(=O)cc(COc3cccc(NC(=O)COc4ccccc4)c3)nc12`, the inhibition falls from 23.2% to 1.32%.

Compared with `COCCNC(=O)CCn1c(=O)c2cc(OC)c(OC)cc2n(CC(=O)Nc2ccccc2OC)c1=O`, `COc1ccc(CCNC(=O)CCCn2c(SCC(N)=O)nc3cc4c(cc3c2=O)OCO4)cc1OC` is lower in inhibition: 2.12% for the first, -15.1% for the second.

First: Cc1ccc(-n2nc(C)c3c(C)cc(=O)n(CC(=O)NC(C)C)c32)cc1
Second: Cc1ccc(-n2nc3c(=O)n(CC(=O)NCc4ccco4)nc(C)c3c2C)cc1
The inhibition of the first is higher: 11.2% for the first, -3.49% for the second.

`CCN(CC)CCOC(=O)c1ccc(NC(=O)CSc2cc(=O)n(CC)c3ccccc23)cc1` and `CCOC(=O)c1ccc(NC(=O)CC2C(=O)N(c3ccc(F)cc3)C(=O)N2Cc2ccc(C)cc2)cc1` (stereo not given) are the same in inhibition: 14.4% for the first, 14.4% for the second.

Compared with `CCc1cccc(CC)c1N(COC)C(=O)Cn1c(C)nc2ccccc21`, `COc1ccccc1CNC(=O)CCNS(=O)(=O)c1cccc2nsnc12` is lower in inhibition: -3.33% for the first, -6.79% for the second.

Compared with `O=C(Nc1ccc(F)c(Cl)c1)C1Cc2ccccc2CN1S(=O)(=O)c1ccc(F)cc1` (stereo not given), `COc1ccccc1N=c1scc(-c2ccc(S(=O)(=O)N3CCCC3)cc2)n1C` is lower in inhibition: 3.36% for the first, -4.86% for the second.

First: CCc1nn(CC(=O)Nc2ccc(C)cc2C)c(=O)c2cc3sccc3n12
Second: CCc1ccc2ncc3c(-c4ccc(C)cc4)nn(CC(=O)Nc4ccc(C)cc4)c3c2c1
The inhibition of the first is higher: 11.7% for the first, -1.55% for the second.

Going from `Cc1ccc(Cn2ccn(Cc3cccc(C(F)(F)F)c3)c(=O)c2=O)cc1` to `COc1ccc(-n2c(=O)c3ccc(C(=O)NCc4ccc(C)cc4)cc3n(Cc3ccc(C)cc3)c2=O)cc1`, the inhibition rises from -10.7% to 1.88%.

Compared with `C=CCOc1ccc(C2c3c(oc4ccc(C)cc4c3=O)C(=O)N2CCCN2CCOCC2)cc1` (stereo not given), `Cc1ccc2c(c1)N(CC(=O)NCCCN1CCCCC1C)C(=O)c1cccnc1O2` (stereo not given) is lower in inhibition: -2.84% for the first, -13.8% for the second.

Going from `COc1cccc(NC(=O)N2CCN(C(=O)c3nsc4ccccc34)CC2)c1` to `COc1ccc(C(=O)Nc2ccccc2-c2nc3ccccc3s2)c(OC)c1`, the inhibition falls from -10.2% to -17.2%.

Going from `Cc1nc2c(c(C)nn2-c2ccccc2)c(C)c1CCC(=O)NCCc1ccc(Cl)cc1` to `CSc1ccc(CNC(=O)CCc2c(C)nn(-c3ccc(N4CCCC4)nn3)c2C)cc1`, the inhibition rises from -3.86% to 7.03%.

Compared with `COc1ccc(NC(=O)N2CCN3CCCCC3C2)cc1OC` (stereo not given), `Cc1ccc(NC(=O)C2CCCN(c3cnccn3)C2)c(C)c1` (stereo not given) is lower in inhibition: 3.83% for the first, -6.08% for the second.

Going from `COc1cc(C2NC(=O)c3c(sc4c3CCN(C)C4)N2)ccc1OC(=O)c1ccccc1` (stereo not given) to `COc1ccc(CNC(=O)c2nc(S(=O)(=O)Cc3ccccc3)ncc2Cl)cc1`, the inhibition rises from -1.29% to 0.226%.

Going from `Cc1c(NC(=O)c2ccc(Br)o2)cccc1-c1nc2ccccc2o1` to `CCCOc1cccc(C(=O)Nc2ccc(-c3cc4ccccc4oc3=O)c(C)c2)c1`, the inhibition falls from 7.07% to 1.34%.

Going from `Cc1cccc(C)c1NC(=O)CCS(=O)(=O)c1cccc2nonc12` to `CCOc1ccccc1NC(=O)c1cc2c(=O)n(Cc3cccnc3)ccc2nc1C`, the inhibition rises from -8.32% to 6.5%.

Compared with `CCOC(=O)c1ccc(NC2=CC(c3ccc(F)cc3)N(c3ccc(C(=O)OCC)cc3)C2=O)cc1` (stereo not given), `CCOC(=O)c1cnc2ccc(Cl)cc2c1Nc1ccc(OCC)cc1` is higher in inhibition: 10.4% for the first, 15.5% for the second.

Going from `Cc1ccccc1Cn1c(SCc2ccc(C(=O)NC3CCCC3)cc2)nc2ccncc21` to `Cc1ccccc1CNCCSc1nnnn1-c1ccccc1`, the inhibition falls from 2.01% to 1.9%.

First: CCOC(=O)c1cc(-c2ccccc2)n(-c2cccc(C(=O)N(C)c3ccc(C)cc3)c2)c1C
Second: COc1ccc(Nc2cc(C(=O)NCCCN(C)Cc3ccccc3)c3ccccc3n2)cc1
The inhibition of the first is lower: -16.3% for the first, -0.0378% for the second.

First: Fc1ccc(N2CCN(Cc3cccn3-c3nnc(N4CCN(C5CCCCC5)CC4)s3)CC2)cc1
Second: Cc1cc(C)c2sc(N3CCN(C(=O)C4CC4)CC3)nc2c1
The inhibition of the first is higher: -4.9% for the first, -18.1% for the second.

Compared with `CC(C)OC(=O)/C(C#N)=C/c1ccc(-c2ccc(Cl)c(Cl)c2)o1`, `CC1CCN(c2oc(-c3ccc(COc4ccc(Cl)cc4)o3)nc2C#N)CC1` is higher in inhibition: 3.78% for the first, 8.71% for the second.

Compared with `COc1ccc(CNC(=O)C2=C(C)C(=O)OC23CCN(C(C)=O)CC3)cc1`, `COc1ccc(CNC(=O)CCc2c(C)c3cc4c(C)coc4cc3oc2=O)cc1` is higher in inhibition: -2.43% for the first, 21.3% for the second.

Going from `COc1cccc(-c2nc3c(c(SCC(=O)Nc4cc(C)ccc4C)n2)Cc2c(CO)cnc(C)c2O3)c1` to `COc1ccc(C(=O)c2sc(Nc3cc(Cl)ccc3C)nc2N)cc1OC`, the inhibition rises from 4.14% to 9.24%.

First: CC(C)OCCCNC(=O)CSc1c2c(nc3ccc(Cl)cc13)CCCC2
Second: CC(=O)c1ccc(NC(=O)CSc2nc(C3CCCC3)nc3c2c(=O)n(C)c(=O)n3C)cc1
The inhibition of the first is higher: 13.8% for the first, -6.26% for the second.

First: Cc1nc(-n2nc(C)c(CCC(C)C)c2C)sc1C(=O)Nc1ccc(Br)cc1
Second: Cc1nc2nc(SCC(=O)N(Cc3ccccc3)C(C)C)nn2c(C)c1Cc1ccccc1Cl
The inhibition of the first is higher: 3.2% for the first, 2.06% for the second.

Going from `CCOc1cc(C2Sc3ccccc3NC3=C2C(=O)c2ccccc23)ccc1O` (stereo not given) to `COc1ccc(Oc2nc3c(C)cccn3c(=O)c2/C=C(\C#N)c2nc3ccccc3[nH]2)cc1`, the inhibition rises from 0.466% to 5.6%.

Compared with `Cc1cc(C)c(NC(=O)Cn2c(=O)n(-c3ccc(F)cc3)c(=O)c3c(C)c(C(=O)N(C)C)sc32)c(C)c1`, `Cc1ccc2c(c1)N(S(=O)(=O)c1ccc3c(c1)NC(=O)CC(=O)N3)CCO2` is lower in inhibition: 12.9% for the first, -0.89% for the second.

`CCn1cc(C(=O)O)c(=O)c2cc(F)c(N/N=C/c3ccccc3[N+](=O)[O-])cc21` was tested, and the inhibition was active: 30%.
`COc1cc(C(=O)N(Cc2cccnc2)Cc2cc3cc4c(cc3[nH]c2=O)OCCO4)cc(OC)c1OC` was tested, and the inhibition was active: 36.8%.
With `CC(=O)CC(C)(C)Nc1nc2ccc([N+](=O)[O-])cc2o1` the inhibition was active: 38.6%.
For `CCCc1cc(=O)[nH]c(SC(C)C(=O)N2c3ccccc3CC2C)n1` (stereo not given), the inhibition was active: 44%.
For `COc1ccc(NC(=O)C/C(C)=N/NC(=O)CCc2ccccc2)c(OC)c1`, the inhibition was active: 39.9%.
For `Cc1cc(C)cc(C(=O)OCC(=O)N2CCCCCC2)c1`, the inhibition was active: 41.8%.
With `Cc1ccc(C)c(CN2CCCNC2=O)c1` the inhibition was active: 30.8%.
For `COc1ccccc1NC(=O)Nc1nc(C(C)(C)C)cs1`, the inhibition was active: 34.6%.
For `CCOc1ccc(N2CC(O)(c3ccc(F)cc3)[N+]3=C2CCCC3)cc1` (stereo not given), the inhibition was active: 30.4%.
For `O=C(Nc1ccc2nc3n(c(=O)c2c1)CCCCC3)C(=O)N1CCN(c2ccc(F)cc2)CC1`, the inhibition was active: 34.3%.
In the case of `Cn1c(=O)n(CCCOc2ccc(Br)cc2)c2ccccc21`, the inhibition was active: 32.4%.
